# Out of some 310,000 compounds screened, about 14,000 (4.5%) showed an effect of 50% or more. Effects have a minus sign here. The list shows a part of the results.
# Target: human ether-à-go-go-related gene (hERG) potassium channel (human, UniProt Q12809)
# Test: primary screen, population patch clamp on CHO cells stably expressing hERG
# 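Also: peak tail current of the secondary pulse compared with the same well before compound.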
# human ether-à-go-go-related gene (hERG) potassium channel, sequence (Q12809 whole entry, looked up): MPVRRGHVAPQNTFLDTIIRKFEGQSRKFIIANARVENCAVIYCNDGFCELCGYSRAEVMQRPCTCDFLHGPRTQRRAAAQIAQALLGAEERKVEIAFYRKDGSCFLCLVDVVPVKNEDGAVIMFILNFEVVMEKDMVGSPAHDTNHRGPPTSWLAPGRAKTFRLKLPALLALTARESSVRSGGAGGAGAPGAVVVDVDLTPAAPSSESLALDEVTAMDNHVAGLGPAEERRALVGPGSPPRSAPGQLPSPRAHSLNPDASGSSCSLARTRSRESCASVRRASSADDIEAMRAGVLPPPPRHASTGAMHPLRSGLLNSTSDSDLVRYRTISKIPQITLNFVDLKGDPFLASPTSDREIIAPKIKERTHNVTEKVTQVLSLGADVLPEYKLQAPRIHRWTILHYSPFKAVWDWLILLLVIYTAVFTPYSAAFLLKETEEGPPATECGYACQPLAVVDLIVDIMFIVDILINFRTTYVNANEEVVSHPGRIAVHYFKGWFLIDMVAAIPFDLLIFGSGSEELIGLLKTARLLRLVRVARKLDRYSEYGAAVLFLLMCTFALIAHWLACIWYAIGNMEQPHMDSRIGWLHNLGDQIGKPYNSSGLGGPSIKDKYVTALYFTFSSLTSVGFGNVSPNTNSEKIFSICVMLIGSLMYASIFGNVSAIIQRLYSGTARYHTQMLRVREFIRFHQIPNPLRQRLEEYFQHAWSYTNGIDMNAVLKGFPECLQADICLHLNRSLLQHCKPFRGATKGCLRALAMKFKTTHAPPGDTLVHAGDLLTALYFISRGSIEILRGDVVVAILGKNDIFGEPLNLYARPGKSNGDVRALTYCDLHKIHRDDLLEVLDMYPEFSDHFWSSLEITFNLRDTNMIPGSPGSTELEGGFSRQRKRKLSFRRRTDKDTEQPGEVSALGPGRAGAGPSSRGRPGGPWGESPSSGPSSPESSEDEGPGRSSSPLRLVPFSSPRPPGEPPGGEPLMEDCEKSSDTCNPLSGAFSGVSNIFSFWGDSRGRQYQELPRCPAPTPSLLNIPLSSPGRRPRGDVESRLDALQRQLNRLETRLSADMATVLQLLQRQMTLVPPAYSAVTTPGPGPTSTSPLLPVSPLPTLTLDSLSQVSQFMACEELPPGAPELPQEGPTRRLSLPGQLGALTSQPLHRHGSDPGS
row,Structure (SMILES),"hERG current change (%, negative = inhibition) at 10uM [%]"
1,CC(=O)Nc1ccc(S(=O)(=O)N2CCSC2c2ccco2)cc1 (stereo not drawn),-2.55
2,O=C(Nc1nc(-c2ccc(Cl)cc2)cs1)C1CCCO1 (stereo not drawn),-41
3,CCOC(=O)C(=O)c1c(-c2ccccc2)nc2ccccn12,1.18
4,O=C(NNc1cccc(Cl)n1)c1ccccc1CC[N+](=O)[O-],15
5,CCOc1ccc(C(=O)CSc2nnc(C3CC3)n2C)cc1,5.81
6,O=C(COC(=O)C1(c2ccc(Cl)cc2)CCCC1)N1CCc2ccccc21,-1.16
7,C(#CCN1CCOCC1)COCCOC(c1ccccc1)c1ccccc1,7.15
8,CCOC(=O)c1nnn(-c2ccccc2C#N)c1C,-0.0597
9,CCOC(=O)C1NN=C(C(=O)c2ccccc2)C1c1ccc(OC)cc1 (stereo not drawn),-9
10,Cc1ccc(CS(=O)(=O)Cc2ccc(C(=O)NC3CCCCCC3)o2)cc1,0.299
11,Cc1ccccc1C(=O)Nc1c(C(=O)N(CCN(C)C)Cc2ccco2)oc2ccccc12,-79.7
12,Cc1cccc(-c2nn(-c3ccccc3)cc2C(=O)NCC(c2cccs2)N2CCOCC2)c1 (stereo not drawn),-4.33
13,O=C(Nc1ccccc1O)c1csc2c1CCCC2,13.7
14,O=C1NC2(CCCCCC2)C(=O)N1Cc1ccccc1,-7.82
15,CCOc1ccccc1NC(=O)COC(=O)c1cc[n+]([O-])cc1,12.3
16,O=C(CN(C(=O)c1csnn1)c1ccc(Cl)cc1)NC1CCCC1,-4.76
17,CCN(C(=O)C1CC1)C1CCS(=O)(=O)C1 (stereo not drawn),11.6
18,COc1cc2c3c(c1)c(N=NC(N)=S)c(O)n3C(C)(C)C=C2C,27.3
19,CC(C)(C)OC(=O)NCCc1nnc(SCC(=O)Nc2cccc(Cl)c2)o1,6.91
20,S=c1[nH]c2ccccc2n2c(=S)[nH]nc12,5.26
21,Cc1nnc(NC(=O)C2CCCN(S(=O)(=O)c3ccccc3C(F)(F)F)C2)s1 (stereo not drawn),-8.84
22,CC12CCC(=O)N1C(C(=O)O)Cc1c2[nH]c2ccccc12 (stereo not drawn),14.3
23,CCOc1ccc(-c2cc(C(=O)N3CCN(C)CC3)c3ccccc3n2)cc1,-0.0962

row,Structure (SMILES),"hERG current change (%, negative = inhibition) at 10uM [%]"
1,CCC(=O)OCCNc1cc(Sc2nc3ccccc3s2)c2nonc2c1[N+](=O)[O-],7.77
2,O=c1c2ccccc2nc(SCc2ccncc2)n1CC1CCCO1 (stereo not drawn),-54
3,COc1cccc(-c2cc(C(F)(F)F)c3c(N)c(C#N)sc3n2)c1,6.42
4,Cc1cnc(C(=O)OCC(=O)c2ccc[nH]2)cn1,24
5,Cc1ccc(N(CC(O)CN2CCCCC2)S(=O)(=O)c2ccccc2)cc1 (stereo not drawn),-68
6,COc1ccc(/C=N/n2c(-c3ccccc3)n[nH]c2=S)cc1,-2.52
7,C=CCN(C(=O)CN1CCOCC1)c1nc(C)c(-c2ccccc2)s1,-0.582
8,C/C=C\C=C/C(=O)Nc1cccc(C2=NOC3(C2)C[C@@H](C(N)=O)N(C(=O)C2(C)CC2)C3)c1 (stereo partly drawn),5.05
9,O=C(NNC(=O)c1ccccc1F)c1ccc(Cl)c(S(=O)(=O)N2CCOCC2)c1,6.04
10,Cc1cc(C)c(S(=O)(=O)/N=C2/C=C(Sc3ncn[nH]3)C(=O)c3ccccc32)cc1C,18.2
11,Cc1ccc(-c2nnc3ccc(SCC(=O)N4CCCc5ccccc54)nn23)cc1,-12.5
12,Cc1ccc(N(CC(=O)NCc2ccccc2)C(=O)CCC(=O)Nc2ccccn2)c(C)c1,-16.9
13,Cc1nc2ccc(S(=O)(=O)NCC(=O)Nc3cccc(F)c3)cc2s1,14.5
14,Cn1nnnc1SCC(=O)N1CCc2ccccc2C1,0.197
15,COCC(=O)N1CCN(c2cccc(C(F)(F)F)c2)CC1.Cl,3.38
16,CCCCn1c(Cn2nc(C(=O)O)c3ccccc3c2=O)nc2cc(S(N)(=O)=O)ccc21,4.84
17,O=c1c(/C=N/OCc2ccc(Cl)cc2Cl)c[nH]n1-c1cccc(Cl)n1,18.7
18,CN1CCN(c2c(N)c(=O)oc3ccccc23)CC1,-45.2
19,CCOC(=O)c1cnn(-c2ccccc2)c1-n1cccc1C(=O)C(=O)N(CC)CC,-2.43
20,Cc1nc2n(n1)C(c1ccccc1)C1=C(CC(c3ccco3)CC1=O)N2 (stereo not drawn),11.4
21,COc1ccc(CNC(=O)c2ccc3ccccc3n2)cc1OC,22.1
22,COc1cccc(OC)c1NC(=O)C1CCCN1C(=O)Nc1cccc(Cl)c1 (stereo not drawn),17.9
